# The list shows a part of the results. Most values come without repeats; read them as rough.
# Assays:
# Assay in all cases: cell count relative to DMSO control; melanoma cells; higher = more viable cells
# Conditions in all cases: library dose: low library concentration; 72 h
# MeWo = tested on: MeWo
# RPMI7951 = tested on: RPMI7951
# RVH-421 = tested on: RVH-421
# SkMel28 = tested on: SkMel28
# SkMel30 = tested on: SkMel30
# SkMel5 = tested on: SkMel5
# UACC257 = tested on: UACC257
# UACC62 = tested on: UACC62
# WM115 = tested on: WM115
# WM1716 = tested on: WM1716
# WM1745 = tested on: WM1745
# WM3526 = tested on: WM3526
# WM3619 = tested on: WM3619
# WM451Lu = tested on: WM451Lu
# 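Further: cell number obtained by counting DAPI-stained nuclei in high-throughput microscope images with image analysis software, screen run in 1,536-well plates.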
SMILES,cell count (MeWo) [%],cell count (RPMI7951) [%],cell count (RVH-421) [%],cell count (SkMel28) [%],cell count (SkMel30) [%],cell count (SkMel5) [%],cell count (UACC257) [%],cell count (UACC62) [%],cell count (WM115) [%],cell count (WM1716) [%],cell count (WM1745) [%],cell count (WM3526) [%],cell count (WM3619) [%],cell count (WM451Lu) [%]
"Oc1cc(-c2nc(-c3ccccc3)[nH]c2-c2ccncc2)ccc1Cl + Cn1cc(/C=C2\C(=O)Nc3cccnc32)c2ccccc21 [GW441756] (first compound 0.2 µM, partner dose 0.4 µM)",113,119,64.9,73,80.7,102,83.3,52.6,73.8,120,79.8,70.9,97.8,120
"COc1cc2ncnc(Nc3ccc(Oc4ccccc4)cc3)c2cc1OC + Cn1cc(/C=C2\C(=O)Nc3cccnc32)c2ccccc21 [GW441756] (first compound 2 µM, partner dose 0.4 µM)",94.8,106,114,83.7,96.1,80.9,78.9,88.7,103,104,71.9,93.4,108,90.9
"CCN(CC)CCCCNc1ncc2cc(-c3cc(OC)cc(OC)c3)c(NC(=O)NC(C)(C)C)nc2n1 + CCCCCCCCCCCC1=C(O)C(=O)C=C(O)C1=O [Embelin] (first compound 0.1 µM, partner dose 1.2 µM)",105,96.2,107,87.4,98.1,96.7,93.5,104,103,112,95.9,108,119,89.6
"Oc1cc(-c2nc(-c3ccccc3)[nH]c2-c2ccncc2)ccc1Cl + Cc1cc([N+](=O)[O-])ccc1NS(=O)(=O)c1cc(Cl)ccc1Cl [FH535] (first compound 0.2 µM, partner dose 1 µM)",93.8,119,79.6,63.4,90.5,96,73.7,67.7,74.8,104,73.2,76.9,78.3,107
"COc1cc(N2CCC(N3CCN(C)CC3)CC2)ccc1Nc1ncc(Cl)c(Nc2ccccc2S(=O)(=O)C(C)C)n1 + CCCCCCCCCCCC1=C(O)C(=O)C=C(O)C1=O [Embelin] (first compound 0.08 µM, partner dose 1.2 µM)",107,101,99.5,99.5,87.8,107,104,106,108,112,85,100,104,122
"COc1cc2ncnc(Nc3ccc(Oc4ccccc4)cc3)c2cc1OC + Cc1cc([N+](=O)[O-])ccc1NS(=O)(=O)c1cc(Cl)ccc1Cl [FH535] (first compound 2 µM, partner dose 1 µM)",90.5,109,105,79.5,90.3,92.7,88.8,92.2,98.8,108,76.9,89.2,66.1,97.3
"COC(=O)c1sccc1S(=O)(=O)Nc1ccc(Nc2ccccc2)cc1OC + Cn1cc(/C=C2\C(=O)Nc3cccnc32)c2ccccc21 [GW441756] (first compound 1 µM, partner dose 0.4 µM)",98.5,94.7,108,98.4,92.3,70.5,103,104,94.1,100,82.2,96.8,103,112
"COc1ccc(-c2ccc3c(N4CCOCC4)nc(N4C[C@@H](C)O[C@@H](C)C4)nc3n2)cc1CO + Oc1cc(-c2nc(-c3ccccc3)[nH]c2-c2ccncc2)ccc1Cl [L779450] (first compound 0.02 µM, partner dose 0.2 µM)",97.7,113,123,97.2,85.5,93.2,82.9,88.4,97.4,101,95.5,78.8,76.6,143
"Oc1nc(-c2ccc(C(F)(F)F)cc2)nc2c1CSCC2 + O=c1cc(-c2cccc3c2Sc2ccccc2S3)oc(N2CCOCC2)c1 [KU55933] (first compound 2 µM, partner dose 1 µM)",93.9,89.5,130,74.8,99.1,76.1,72.1,94,93.9,70.4,81.3,93.3,101,91.2
"Cc1cc([N+](=O)[O-])ccc1NS(=O)(=O)c1cc(Cl)ccc1Cl + COc1cc(N2CCC(N3CCN(C)CC3)CC2)ccc1Nc1ncc(Cl)c(Nc2ccccc2S(=O)(=O)C(C)C)n1 [NVP-TAE684] (first compound 1 µM, partner dose 0.08 µM)",84.1,103,5.04,98,92.7,67.4,75.1,79.4,93.5,104,94.1,115,112,94.1
"COC(=O)c1sccc1S(=O)(=O)Nc1ccc(Nc2ccccc2)cc1OC + O=C(O)C(=O)Nc1sc2c(c1C(=O)O)CCNC2 [TCS401] (first compound 1 µM, partner dose 1.66667 µM)",90.2,100,87.8,89.1,99.8,86.6,78.8,100,100,106,99.6,112,94.3,101
"O=S(=O)(c1ccccc1)N(CC(F)(F)F)c1ccc(C(O)(C(F)(F)F)C(F)(F)F)cc1 + COc1cc2ncnc(Nc3ccc(Oc4ccccc4)cc3)c2cc1OC [SrcI1] (first compound 1.4 µM, partner dose 2 µM)",96.5,112,108,88.3,111,88.9,98.8,90.4,99.4,111,77.1,97.4,87,101
"COC(=O)c1sccc1S(=O)(=O)Nc1ccc(Nc2ccccc2)cc1OC + COc1cc(N2CCC(N3CCN(C)CC3)CC2)ccc1Nc1ncc(Cl)c(Nc2ccccc2S(=O)(=O)C(C)C)n1 [NVP-TAE684] (first compound 1 µM, partner dose 0.08 µM)",91.7,92.6,83.9,80.9,93.1,74.4,80,81.2,93.4,102,85.3,104,114,117
"COc1cc2ncnc(Nc3ccc(Oc4ccccc4)cc3)c2cc1OC + c1cc(-c2cnn3cc(-c4ccc(OCCN5CCCCC5)cc4)cnc23)ccn1 [Dorsomorphin] (first compound 2 µM, partner dose 0.4 µM)",85.7,123,108,88.8,112,92.6,92.6,104,105,113,82.8,89.8,102,109
"O=C(O)C(=O)Nc1sc2c(c1C(=O)O)CCNC2 + c1cc(-c2cnn3cc(-c4ccc(OCCN5CCCCC5)cc4)cnc23)ccn1 [Dorsomorphin] (first compound 1.66667 µM, partner dose 0.4 µM)",107,97,112,88.3,69.6,93.7,92.2,101,98.1,114,82.2,87.3,163,97.5
"O=C(O)C(=O)Nc1sc2c(c1C(=O)O)CCNC2 + O=c1cc(-c2cccc3c2Sc2ccccc2S3)oc(N2CCOCC2)c1 [KU55933] (first compound 1.66667 µM, partner dose 1 µM)",100,107,106,85.2,108,102,85.2,106,100,105,82.7,102,116,97.6
"COc1cc(N2CCC(N3CCN(C)CC3)CC2)ccc1Nc1ncc(Cl)c(Nc2ccccc2S(=O)(=O)C(C)C)n1 + O=c1cc(-c2cccc3c2Sc2ccccc2S3)oc(N2CCOCC2)c1 [KU55933] (first compound 0.08 µM, partner dose 1 µM)",72.5,81.7,114,83.2,92.7,95.4,72.7,91.7,90.2,91.1,84.7,80.8,90.4,106
"Cc1cc([N+](=O)[O-])ccc1NS(=O)(=O)c1cc(Cl)ccc1Cl + c1cc(-c2cnn3cc(-c4ccc(OCCN5CCCCC5)cc4)cnc23)ccn1 [Dorsomorphin] (first compound 1 µM, partner dose 0.4 µM)",84.5,105,115,72.3,91.6,85.9,64.7,79.4,78,96.3,78.8,83.6,109,90.6

# Reference: the supplement of paper PMC4604168 (melanoma cell lines)
